Laboratory results reported in PubChem BioAssay AID504332 (National Center for Advancing Translational Sciences (NCATS), 2011).
Where “and” joins values, the source holds several entries; their conditions need not be identical. Identical values can stand only once. In all, about 350,000 compounds went through this assay and about 31,000 (8.9%) were called active. Inconclusive results, whose numbers are uncertain, are shown with a selection of clear calls. The call rests on the fitted dose curve; in most records, active means well fitted inhibition curve with a large enough effect; inconclusive means small, poorly fitted or top-dose-only effect; inactive means no such curve, though single readings can be large or run the other way. Where the call is inconclusive, the potency comes from a doubtful curve fit. The source holds several records for some structures; these can differ, active in one and inactive in another.

Target: Histone-lysine N-methyltransferase EHMT2 (Homo sapiens) (UniProt Q96KQ7)
Experiment: qHTS Assay for Inhibitors of Histone Lysine Methyltransferase G9a; further: nearly all actives have a fitted effect of over 75% in size
Conditions: G9a H3K9 monomethylation, AlphaScreen, 2 h; activity, negative = inhibition: at 59 µM (top of the series) unless noted
Procedure, shortened: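 Readings reflect AlphaScreen signal from monomethyl-H3K9 antibody detection. HMT at 20 nM; substrate b-H3K9 500 nM; cofactor SAM 20 uM; 2 h RT reaction; compounds tested as titrations in qHTS with 15 min preincubation.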
On the % scale 0 is the no-effect control and ±100 the full control effect; potency means the concentration at half of the fitted maximal effect; tags describe the fitted curve by direction and shape.

UniProt Q96KQ7, sequence (Q96KQ7 whole entry, looked up): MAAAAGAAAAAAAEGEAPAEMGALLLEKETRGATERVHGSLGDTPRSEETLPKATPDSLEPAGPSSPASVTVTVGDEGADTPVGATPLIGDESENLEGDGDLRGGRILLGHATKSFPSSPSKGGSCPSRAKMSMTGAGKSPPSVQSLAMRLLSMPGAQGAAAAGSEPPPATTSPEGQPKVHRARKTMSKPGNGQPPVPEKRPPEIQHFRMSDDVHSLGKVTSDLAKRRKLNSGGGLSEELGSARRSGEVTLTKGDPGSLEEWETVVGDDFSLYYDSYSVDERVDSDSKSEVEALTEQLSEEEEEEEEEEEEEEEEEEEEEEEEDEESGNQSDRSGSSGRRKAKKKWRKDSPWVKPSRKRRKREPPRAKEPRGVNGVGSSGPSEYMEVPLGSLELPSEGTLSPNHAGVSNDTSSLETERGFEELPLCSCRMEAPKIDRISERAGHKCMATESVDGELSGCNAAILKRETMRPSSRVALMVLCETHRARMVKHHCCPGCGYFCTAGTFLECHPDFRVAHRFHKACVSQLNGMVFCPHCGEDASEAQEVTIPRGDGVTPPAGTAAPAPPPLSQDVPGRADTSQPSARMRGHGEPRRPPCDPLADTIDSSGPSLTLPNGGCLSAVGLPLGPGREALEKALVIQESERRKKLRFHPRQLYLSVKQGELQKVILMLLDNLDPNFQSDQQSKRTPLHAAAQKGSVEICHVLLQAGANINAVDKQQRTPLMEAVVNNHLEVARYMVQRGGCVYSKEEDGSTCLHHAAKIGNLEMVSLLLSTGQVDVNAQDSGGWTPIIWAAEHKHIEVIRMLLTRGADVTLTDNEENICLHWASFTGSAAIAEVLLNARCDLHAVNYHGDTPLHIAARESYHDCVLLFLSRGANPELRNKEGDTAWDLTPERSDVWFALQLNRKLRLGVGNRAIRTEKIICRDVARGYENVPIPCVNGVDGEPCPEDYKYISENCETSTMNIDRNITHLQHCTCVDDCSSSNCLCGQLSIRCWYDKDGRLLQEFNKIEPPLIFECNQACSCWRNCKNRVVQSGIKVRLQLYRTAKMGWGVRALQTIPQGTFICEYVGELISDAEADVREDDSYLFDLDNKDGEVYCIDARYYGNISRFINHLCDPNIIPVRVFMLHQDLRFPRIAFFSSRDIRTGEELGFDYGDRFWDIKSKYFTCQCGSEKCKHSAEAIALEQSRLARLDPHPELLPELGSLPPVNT

Compound	Potency	activity, negative = inhibition
COc1cc2c(cc1OC)CN(Cc1cc(OC)c(O)c(OC)c1)CC2	active: 31.6 µM	–
Cc1cccc(OCCCCc2c(C)n[nH]c2C)c1C	–	inconclusive: -90% [inhibitor]
COc1ccc(OC)c(CN2CCN(C(=O)c3cc4ccccc4cc3O)CC2)c1	inconclusive: 79.4 µM [inhibitor, single point]	–
O=[N+]([O-])c1ccccc1OCCNCc1ccccc1	active: 7.94 µM	–
Cn1c(SCC(=O)c2ccccc2)nnc1-c1cccs1	–	inconclusive: -71.9% [inhibitor]
COc1ccc(C(=O)NCC2COc3ccccc3O2)cc1S(=O)(=O)N1CCOCC1 (stereo not drawn)	–	inconclusive: -67.4% [inhibitor] [at 12.7 µM]
Cc1cc(C(=O)CCl)c(C)n1-c1cccc([N+](=O)[O-])c1	inconclusive: 50.1 µM [inhibitor, partial curve]	–
Cn1c2ccccc2c(=O)c2cc(C#Cc3ccc(N)cc3)ccc21	inconclusive: 56.2 µM [inhibitor, partial curve, poor fit]	–
COC(=O)c1ccc(-n2c(C)cc(C(=O)COC(=O)CNS(=O)(=O)c3ccc(C)cc3)c2C)cc1	inconclusive: 3.55 µM [inhibitor, full curve, poor fit]	–
CC(=NC(C)C)C1=C(O)C(C)OC1=O (stereo not drawn)	inactive	–
C=CCn1c(SCC(=O)NCC2CCCO2)nnc1C1CCCCC1 (stereo not drawn)	inconclusive: 44.7 µM [inhibitor, partial curve, poor fit]	–
CC(C)c1ccc(C(=O)CC2(O)C(=O)N(CCc3ccccc3)c3ccc(Cl)cc32)cc1 (stereo not drawn)	inconclusive: 3.16 µM [inhibitor, partial curve, poor fit]	–
CCOc1ccc(NC(=O)C(=O)NCCc2sc(-c3ccc(C)cc3)nc2C)cc1	inactive	–
CCOC(=O)c1cccc(Nc2ncnc3ccccc23)c1	inconclusive: 39.8 µM [inhibitor, single point]	–
Cc1cc2ccccn2c1C(=O)c1ccc([N+](=O)[O-])o1	inconclusive: 3.55 µM [inhibitor, full curve, poor fit]	–
COc1cccc(NC(=O)Cn2nc(-c3ccncc3)ccc2=O)c1	inactive	–
Cc1ccc(N2CC(C(=O)Nc3ccc4c(c3)OCO4)CC2=O)cc1C (stereo not drawn)	inconclusive: 70.8 µM [inhibitor, single point]	–
O=C(c1cnn(-c2ccc(F)cc2)c1-n1cccc1)N1CCN(c2cccc(Cl)c2)CC1	inconclusive: 3.98 µM [inhibitor, partial curve, poor fit]	–
O=S(=O)(NC1CCCC1)c1ccc(S(=O)(=O)N(Cc2cccs2)CC2CCCO2)cc1 (stereo not drawn)	inconclusive: 44.7 µM [inhibitor, single point]	–
CCCCN(CCCC)C(=S)N/N=C/c1c(C)[nH]n(-c2ccccc2)c1=O	inconclusive: 0.562 µM [inhibitor, full curve, poor fit]	–
CC(C)Oc1ccc(CCNC(=O)C2CCC(=O)N(C3CCCCCC3)C2)cc1 (stereo not drawn)	inconclusive: 31.6 µM [inhibitor, single point]	–
O=C1NC(=O)/C(=C/c2ccc(O)cc2)S1	inconclusive: 89.1 µM [inhibitor, partial curve, poor fit]	–
Cc1cccc([C@@H]2[C@@H]3C(=O)N(Cc4ccccc4)C(=O)[C@@H]3[C@]3(CC(C)C)C(=O)N(c4cccc(Cl)c4)C(=O)N23)c1	inactive	–

Compound	Potency	activity, negative = inhibition
O=S(=O)(NCc1csc(-c2ccccc2)n1)c1ccccc1	inactive	–
Cc1cccc(Cn2c(CN3CCC(C(=O)NCc4ccccc4Cl)CC3)cc3ccccc32)c1	inactive	–
CS(=O)(=O)NCC(c1cccnc1)N1CCN(c2ccc(F)cc2)CC1 (stereo not drawn)	inconclusive: 39.8 µM [inhibitor, single point]	–
Cc1cc(C)cc(-n2ncc3c2CCCC3NC(=O)c2cc(C)oc2C)c1 (stereo not drawn)	inconclusive: 79.4 µM [inhibitor, single point]	–
CCOC(=O)CN1C(=O)SC(CC(=O)Nc2nccs2)C1=O (stereo not drawn)	inconclusive: 89.1 µM [inhibitor, single point]	–
O=C(CSCCO)Nc1cc(C(F)(F)F)ccc1Cl	–	inactive: -23.6% [at 12.7 µM]
C=C1NC(=O)c2cc(CN(C)c3ccc(C(=O)N[C@@H](CCC(=O)O)C(=O)O)s3)ccc2N1	inactive	–
O=C(O)/C=C/c1nc(-c2ccccc2)n2ccccc12	active: 11.2 µM	–
COc1ccccc1CNC(=O)COC(=O)c1cccc(S(=O)(=O)N2CCOCC2)c1	active: 12.6 µM	–
C/C(=N\Nc1nc2ccccc2[nH]1)c1ccc([N+](=O)[O-])cc1	–	inconclusive: -51.6% [inhibitor]
CN1CCN(CCCN2c3ccccc3Sc3ccc(Cl)cc32)CC1	active: 7.94 µM and active: 14.1 µM and active: 15.8 µM	–
O=C(c1ccc(N2C(=O)C3CC=C(Cl)CC3C2=O)cc1)N1CCOCC1 (stereo not drawn)	inactive	–
Cn1c(=S)[nH]c2sc3c(c2c1=O)CCC(C(C)(C)C)C3 (stereo not drawn)	active: 39.8 µM	–
O=C(COC(=O)c1cc(Cl)ccc1[N+](=O)[O-])Nc1cccc2ccccc12	inconclusive: 89.1 µM [inhibitor, single point]	–
Cc1ccc(NC(=O)CN2C(=O)CCc3cc(S(=O)(=O)N4CCOCC4)ccc32)c(C)c1	–	inactive: 6.51% [at 12.7 µM]
O=[N+]([O-])c1cccc(-c2ccc(/C=N/n3c(-c4ccccc4)n[nH]c3=S)o2)c1	inconclusive: 2 µM [inhibitor, full curve, poor fit]	–
CC1CCN(C(=O)CN2C(=O)C(=O)N(C(C)C)C2=O)c2ccccc2S1 (stereo not drawn)	inconclusive: 39.8 µM [inhibitor, single point]	–
O=C(CN1CCC(C(=O)c2cccc(F)c2)CC1)NCc1cccs1	inconclusive: 89.1 µM [inhibitor, single point]	–
Cc1cc(C)n(-c2nc(C(=O)O)cs2)n1	active: 50.1 µM	–
COc1ccc(-c2nn(C)c3sc(C(=O)N4CCN(c5cc(Cl)ccc5C)CC4)cc23)cc1OC	inconclusive: 5.62 µM [inhibitor, partial curve, poor fit]	–
C=CCSc1nc2c(c(=O)[nH]c(=O)n2C)n1Cc1ccc(C)cc1	active: 14.1 µM	–
Clc1cc2c(c(Cn3cnc4ccccc43)c1)OCOC2	inactive	–
CCOc1ccc(S(=O)(=O)Nc2ccc(C(=O)NCC(c3ccco3)N3CCCCC3)cc2)cc1 (stereo not drawn)	inconclusive: 50.1 µM [inhibitor, partial curve, poor fit]	–

Compound	Potency	activity, negative = inhibition
O=C1CC(N2CCC(c3nc4ccccc4s3)CC2)C(=O)N1Cc1ccccc1 (stereo not drawn)	inconclusive: 89.1 µM [inhibitor, single point]	–
O=C(O)c1ccc(N/C(=N\S(=O)(=O)c2ccc(Cl)cc2)c2ccccc2)cc1	inconclusive: 35.5 µM [inhibitor, single point]	–
CCCCS(=O)(=O)N1CCCC(C(=O)NCC2CCCO2)C1 (stereo not drawn)	inactive	–
Cc1nc(N)sc1C(=O)N1N=N1	active: 8.91 µM	–
N=C1/C(=C\c2ccc(SCc3ccccc3)o2)C(=O)N=C2SC(CC(=O)N3CCOCC3)=NN12	–	inconclusive: -95.4% [inhibitor]
NS(=O)(=O)c1ccc(NC(=S)Nc2ccc(Br)c(Cl)c2)cc1	inconclusive: 89.1 µM [inhibitor, partial curve, poor fit]	–
COc1ccc(CCNC(=O)Cn2c(=O)c3cccn3c3ccc(F)cc32)cc1OC	inconclusive: 15.8 µM [inhibitor, partial curve]	–
CCOc1ccc(-c2cnc(NCc3cccc(Cl)c3)n2C)cc1	active: 7.94 µM	–
C=CCn1c(C)cc(C(=O)COc2ccc(S(=O)(=O)N3CCCC3)cc2[N+](=O)[O-])c1C	inconclusive: 22.4 µM [inhibitor, partial curve]	–
Cc1ccc(/C=N/N2CCN(Cc3ccccc3)CC2)s1	–	inactive: 39.9% [at 0.501 µM]
CC(=O)c1c(OC(=O)c2ccco2)c2ccccc2n1C	inconclusive: 3.16 µM [inhibitor, full curve]	–
CCCN(C(=O)c1cccs1)c1c(N)n(Cc2ccccc2)c(=O)[nH]c1=O	inconclusive: 8.91 µM [inhibitor, partial curve, poor fit]	–
O=C(c1ccco1)N1CCc2[nH]nc(-c3ccccc3)c2C1	active: 79.4 µM	–
COc1ccccc1Nc1ccc([N+](=O)[O-])cc1N	inconclusive: 12.6 µM [inhibitor, partial curve, poor fit]	–
CN(C)C(CNC(=O)c1cccc(C#N)c1)c1ccco1 (stereo not drawn)	inconclusive: 89.1 µM [inhibitor, single point]	–
Cc1[nH]c2ccc(F)cc2c1CCN(Cc1cccnc1)C(=S)Nc1ccccc1	active: 56.2 µM	–
COc1ccc(CN2C=C3C(=O)C(C)(OC(=O)C4CCCC4)C(=O)C=C3C=C2c2ccsc2)cc1 (stereo not drawn)	inconclusive: 14.1 µM [inhibitor, single point]	–
COC(=O)c1sc(S(=O)(=O)Oc2ccccc2NC(C)=O)c(C(=O)OC)c1C	inconclusive: 63.1 µM [inhibitor, partial curve, poor fit]	–
CCC(c1nnnn1CCc1ccccc1)N(Cc1ccco1)Cc1cc2cc(C)cc(C)c2[nH]c1=O (stereo not drawn)	–	inconclusive: -70.6% [inhibitor]
Cc1occc1-c1nnc(SCc2cc(=O)n3cc(Br)ccc3n2)n1C	inactive	–
COC(=O)CSc1nnc(-c2ccccn2)n1Cc1ccco1	inconclusive: 39.8 µM [inhibitor, single point]	–
CC(=O)N1CCN(c2ccc(NC(=O)c3ccc([N+](=O)[O-])o3)cc2Cl)CC1	inactive	–
